“And” between values parts separate entries of the source, which are not always exact repeats. Equal entries are not always repeated.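 Exposure lasted 48 hours, with cells grown in 96-well plates and compounds tested at five concentrations. GI50 = concentration required for 50% inhibition of growth. TGI marks complete inhibition of growth.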 Square brackets hold non-standard residues; d marks the D form. Peptide text beside a SMILES is read from it. Phe(4-Cl) = N[CH](Cc1ccc(Cl)cc1)C(=O)O

The subject of this assay is NCI-H322M lung. As to the kind of experiment: NCI anticancer screen, dose series, 48 h.
In the case of `Cc1ccccc1N(CCC#N)C1=NN(C(=O)CC(=O)Nc2ccccc2)C(c2ccccc2)C1` (configuration not stated), the TGI was above 100 µM.

Compound `NCc1ccc(-c2ccc(CN)s2)s1` came in with a TGI above 100 µM.

`O=S(=O)(/N=S(/Nc1ccccc1)C(Cl)Cl)c1ccccc1` (configuration not stated) displayed a TGI above 100 µM.

The compound `O=C1NC(=O)c2ccc([N+](=O)[O-])c3cccc1c23` registered a TGI of 32.6 µM.

For `CCOC(=O)/C(C#N)=C/Nc1c(C)n(C)n(-c2ccccc2)c1=O`, the TGI was above 100 µM.

Compound `N#Cc1ccc(NC(=NCC(=O)O)Nc2cccc3ccccc23)cc1` displayed a TGI above 10 µM.

With `Cc1nc(N)c(N2CCN(S(N)(=O)=O)CC2)c(=O)[nH]1`, the TGI is above 100 µM.

In turn, `CSC1=N/C(=C\c2ccc(C)cc2)C(=O)N1` yielded a TGI above 100 µM.

With `Nc1ncc(-c2cnn(CCO)c2)c2scc(-c3ccc(NC(=O)Nc4cccc(F)c4)cc3)c12`, the GI50 was 0.363 µM and the TGI stood at 3.12 µM.

`CN(C)CCNC(=O)c1cccc(C(=O)Nc2ccccc2)c1[N+](=O)[O-]`: the TGI was above 100 µM.

With `COc1ccc(-c2cn3ccsc3n2)cc1`, the TGI was above 100 µM.

On to `C[C@]12CC[C@H]3[C@@H](CCC4=CC(=O)CC[C@@H]43)[C@@H]1CC[C@]2(O)C(N)=O`, for which the TGI was above 100 µM.

In turn, `OCC1OC(NC(=S)NCCC(F)(F)C(F)(F)C(F)(F)C(F)(F)C(F)(F)C(F)(F)F)C(O)C(O)C1O` (configuration not stated) gave a TGI above 100 µM.

With `O=c1[nH]c(=O)n(C/C=C/CO)nc1Br`, the TGI was above 100 µM.

`CN/N=C(/CCN1CCCC1)CC(c1ccccc1)c1c(O)c2ccccc2oc1=O` (configuration not stated) registered a TGI above 100 µM.

In turn, `CC1=C(C)CC2(CCCCC2=O)S(=O)C1` (configuration not stated) came in with a TGI above 100 µM.

On to `CCCCN=C(N)c1ccc(OCCSCCOc2ccc(C(N)=NCCCC)cc2)cc1`, for which the GI50 is 11.6 µM and the TGI was above 100 µM.

Regarding `CCS(=O)(=O)c1ccc(OC)c(Nc2ncc(-c3cccc(C(C)=O)c3)o2)c1`, the GI50 was above 25 µM and the TGI was above 25 µM.

As for `CN(C)c1ccc(N)cc1`, the GI50 is 5.02 µM and the TGI was determined as 36.6 µM.

On to `C=CC(C)(C)n1cc(C2=C3OC(=O)C(c4cn(C(C)(C)C=C)c5ccccc45)=C3OC2=O)c2ccccc21`, for which the TGI is above 100 µM.

In turn, `CCCN(CCc1ccc(-c2ccccc2)cc1)CCc1ccc2n[nH]nc2c1` returned a TGI of 25.4 µM.

In turn, `CC(C)CCCC(C)[C@H]1CC[C@H]2n3c(nnc3-c3ccccc3)CCC[C@]12C` (some centres not stated) came in with a TGI of 41.4 µM.

`Cc1ccc(S(=O)(=O)NC(=O)NCc2ccc(S(N)(=O)=O)cc2)cc1` displayed a TGI above 100 µM.

With `COc1ccc(CNc2ccn(C3OC(CO)C(O)C3O)c(=O)n2)cc1` (configuration not stated), the TGI was above 100 µM.

The compound `CC1(n2nc(-c3ccccc3)n(-c3ccccc3)c2=O)CSC1` displayed a TGI above 100 µM.

`COc1cc2c(/C=C3/C(=O)Nc4ccc(O)cc43)c(Cl)n(Cc3ccccc3)c2cc1C` had a TGI of 31.9 µM.

As for `N.N.N.N.N.O=C([O-])c1nn[n-]n1.[Cl-].[Co+3]`, the GI50 is above 100 µM and the TGI is above 100 µM.

Take `COC(=O)C1=NC(=S)NC(c2ccccc2)C1c1nc2ccccc2s1` (configuration not stated): the TGI is above 100 µM.

Take `CCC#CC[C@H]1C/C=C2/C(=O)C=C[C@@H]2C/C=C\CCCC(=O)O1`: the GI50 is 1.59 µM and the TGI is 7.47 µM.

As for `CCC1CN2CCc3cc(OC)c(OC)cc3C2CC1CC1c2cc(OC)c(OC)cc2CCN1C(=O)C(N)Cc1ccccc1` (configuration not stated), the TGI stood at 10.1 µM.

For the compound `CCN(CC)C(=O)c1cc(OC(C)C)ccc1-c1c(C)cc(OC(C)C)c(OC)c1OC`, the TGI is above 100 µM.

The compound `COc1cccc(Nc2nc(C)c([N+](=O)[O-])c(Nc3cccc(OC)c3)n2)c1` came in with a TGI above 100 µM.

In turn, `CC(C)(C)c1cc(S(=O)(=O)O)c2oc(-c3ccccc3)cc(=O)c2c1` displayed a TGI above 100 µM.

The compound `CCOC(=O)C1(CO)CSCCSC1` displayed a TGI above 100 µM.

On to `CN(C)CCn1c(=O)c2ccc(NCCNCCO)c3c(=O)c4ccccc4n(c1=O)c23`, for which the TGI was determined as 11.2 µM.

In the case of `Cc1cc(C)c(C(=O)CC(=O)c2cccnc2)c(C)c1`, the GI50 is 9.02 µM and the TGI is above 100 µM.

`Cc1ccc(S(=O)(=O)n2c(-c3ccccc3)c(-c3ccccc3)c3ccccc32)cc1` had a TGI above 100 µM.

For the compound `CC(=O)c1c(-c2ccc(Cl)cc2)c(-c2ccc(Cl)cc2)n[nH]c1=O`, the TGI was above 100 µM.

On to `CC12CCCC(C(=O)O)(C1)[C@H](C(C)(C)C(=O)O)CC2` (some centres not stated), for which the TGI was above 100 µM.

Turning to `CCS(=O)(=O)c1ccc(OC)c(Nc2ncc(-c3cccc(OC)c3)o2)c1`, the GI50 is 11.1 µM and the TGI was above 25 µM.

As for `Cc1noc(C)c1CCCOC1COc2ccccc2OCCOCCOc2ccccc2OC1`, the TGI was above 100 µM.

Turning to `Cc1cccc(N/C(=C(/C(Cl)=C(Cl)Cl)[N+](=O)[O-])n2nnc3ccccc32)c1`, the TGI was 64.6 µM.

In the case of `O=C(O)CC1OCC=C2CN3CCC45c6ccccc6NC4C1C2CC35` (configuration not stated), the TGI was above 100 µM.

Take `CC(=O)OCC(OC(C)=O)C1C[C@H]2O[C@@H]3[C@H](C[C@H]2O1)O[C@@]1(C[C@@H]3C)C[C@H](C)[C@@H]2O[C@]3(C[C@@H]2O1)C[C@H]1O[C@H]2[C@H](C)[C@H]4OC(=O)C[C@H]5CC[C@@H]6OC7[C@H]8O[C@]9(CC[C@H]%10CC(=O)[C@H](CC[C@H]%11C[C@@H](C)C(=O)C(C[C@@H]4O[C@H]2C[C@H]1O3)O%11)O%10)CC8O[C@@H]7[C@@H](O9)[C@H]6O5` (some centres not stated): the TGI came to 0.0102 µM.

With `CC[C@@]1(O)C(=O)OCc2c1cc1n(c2=O)Cc2c-1nc1ccccc1c2/C=N\NC(=O)C[n+]1ccccc1`, the TGI was above 100 µM.

As to `N=c1c2ccccc2nc2oc3cc([N+](=O)[O-])ccc3n12`, the TGI is above 100 µM.

In the case of `CCN1C(=O)CNc2ncc(-c3ccc(-c4ncn[nH]4)nc3C)nc21`, the GI50 is 0.225 µM and the TGI was determined as 7.99 µM.

Regarding `COc1ccc(NC(=S)Nc2cc(C)ccn2)cc1`, the TGI is above 100 µM.

On to `COc1ccc(OC)c(/C=C/C(=O)N/N=C/c2ccc(Cl)cc2)c1`, for which the GI50 was 0.511 µM and the TGI was above 100 µM.

Consider `CCC1(O)C(=O)OCc2c1cc1n(c2=O)Cc2cc3ccc(C=O)cc3nc2-1` (configuration not stated), for which the GI50 was 5.53 µM; the TGI is 31.6 µM and 28.7 µM.

In the case of `COC(=O)c1ccccc1/C=C1\Cc2c(C)c3c(c(C)c2C1=O)CCC3`, the TGI is above 100 µM.

Turning to `O=C1c2ccccc2-c2nnc(-c3ccc([N+](=O)[O-])cc3)cc21`, the TGI was above 10 µM.

For `CCOc1cccc(C=Nc2ccccc2SSc2ccccc2N=Cc2cccc(OCC)c2O)c1O`, the TGI turned out to be 29.5 µM.

`COc1nn(Cc2ccccn2)c2ccc([N+](=O)[O-])cc12`: the TGI is above 100 µM.

For the compound `CC(=O)OC1=NN=C2COC(c3ccccc3OC(C)=O)=NN2C1`, the TGI is above 50 µM.

In turn, `N=C1C(=N)c2ccccc2-c2ccccc21.[Cl-].[Ru+2].c1cnc2c(c1)ccc1cccnc12.c1cnc2c(c1)ccc1cccnc12` displayed a TGI above 100 µM.

For `CC(O)C(NC(=O)C(Cc1ccccc1)NC(=O)C(NC(=O)C(CCCCN)NC(=O)C(Cc1c[nH]c2ccccc12)NC(=O)C(Cc1ccc(O)cc1)NC(=O)C(Cc1ccc(Cl)cc1)NC(=O)C(N)Cc1ccccc1)C(C)O)C(N)=O` (configuration not stated) (H-F[Phe(4-Cl)]YWKTFT-NH2; configuration not given here), the TGI came to 34.3 µM.

`CC/C=C\C[C@@H]1C/C=C2/C(=O)C=C[C@H]2C/C=C\CCCC(=O)O1`: the GI50 is 4.57 µM and the TGI came to 15 µM.

The compound `CCOC(=O)C(Cc1ccc2ccccc2c1)(Cc1ccc2ccccc2c1)C(C)=O` came in with a TGI above 10 µM.

For the compound `COc1ccc2c(c1)C(=O)c1c-2n(CCCn2ccnc2)c(=O)c2ccccc12`, the GI50 was 1.3 µM and the TGI is 9.28 µM.

`CCOC(=O)CC[C@H](N)C(=O)N[C@@H](Cc1ccc(N(CCCl)CCCl)cc1)C(=O)OCC` displayed a TGI of 20.2 µM.

In turn, `[O-][n+]1nc(N2CCOCC2)nc2ccccc21` showed a TGI above 100 µM.

As for `CC1(C)C2CC(O)C1(C)CC2=O` (configuration not stated), the TGI is above 100 µM.

In turn, `NCC(Cl)C(O)c1cnc(N)[nH]1` (configuration not stated) came in with a TGI above 25 µM.

Turning to `CCOC(=O)NC(=O)c1cn(CCOCCOC(=O)NCCCCCCNC(=O)OCCOCCn2cc(C(=O)NC(=O)OCC)c(=O)[nH]c2=O)c(=O)[nH]c1=O`, the TGI is above 100 µM.

Regarding `CCc1[nH]c(=O)nc(N)c1-c1ccc(N2CCCCC2)c([N+](=O)[O-])c1`, the TGI was above 100 µM.

Take `O=C(CCl)Nc1ccc(Cl)cc1`: the GI50 is 9.54 µM and the TGI was determined as 24 µM.

For `Cc1nc2ccccc2c(=O)n1NC(=O)c1ccccn1`, the TGI is above 100 µM.

`COc1ccc(CC2Cc3ccccc3CCN2)cc1OC` (configuration not stated) yielded a TGI above 50 µM.

The compound `NC1=NN(c2ccccc2)C(=O)C1C(=O)CCC(=O)Nc1cccc(C(F)(F)F)c1` (configuration not stated) registered a TGI above 100 µM.

`O=C1Cc2c([nH]c3ccc(Br)cc23)-c2cc(Br)ccc2N1` displayed a TGI above 100 µM.

Regarding `CN(C)CCCn1c2c(c3ccccc3c1=O)C(=O)c1ccccc1-2`, the GI50 is 2.87 µM and the TGI was 7.82 µM.

Compound `COc1ccccc1C[C@@H]1OC2(C=CC(=O)CC2SC(=O)c2ccccc2)O[C@H]1Cc1ccccc1OC` (some centres not stated) had a TGI of 18.2 µM.

Take `CN(CCC(=O)N1CC(CCl)c2ccc([N+](=O)[O-])cc21)CCC(=O)N1CC(CCl)c2ccc([N+](=O)[O-])cc21` (configuration not stated): the TGI is above 100 µM.

For `CC(C)OC(=O)c1ccc(NCC2=CC(=O)C=CC2=O)cc1`, the TGI was above 100 µM.

`C[C@]12CCC(O)CC1=CC[C@@H]1[C@@H]2CC[C@]2(C)C(O)[C@H](n3ccnc3)C[C@@H]12` (some centres not stated) yielded a TGI above 100 µM.

Turning to `CC12Nc3c(Cl)cc(Cl)cc3N1C(=O)c1ccccc12` (configuration not stated), the TGI is above 100 µM.

Compound `C=C(C)C1CC=C(C)C(=O)C1` (configuration not stated) registered a TGI above 100 µM.

Consider `COc1cc2oc(-c3ccc(O)cc3)cc(=O)c2c(OC)c1OC`, for which the TGI was above 100 µM.

Compound `C=CCN1C(=O)/C(=C/c2ccc(Cl)cc2)N=C1SC/C=C/C` showed a TGI above 100 µM.

The compound `Cn1cc(C(=O)c2ccccc2)ccc1=O` displayed a TGI above 100 µM.

On to `OC1=C2c3ccccc3NC2Oc2cc(F)ccc21` (configuration not stated), for which the TGI turned out to be 44.1 µM.

For the compound `CCN(CC)c1ccc(C(=N)c2ccc(N(CC)CC)cc2)cc1`, the GI50 is 2.09 µM and the TGI is 9.32 µM.

With `COC(=O)/C(C)=N/NC(=S)SC`, the TGI is above 100 µM.

With `COC(=O)c1ccccc1/C=C1\Cc2c(ccc3c2CCC3)C1=O`, the TGI is above 100 µM.

Compound `Cc1[nH]c(=O)[nH]c(=O)c1/C=C/C(=O)NC(CO)CC(C)C` (configuration not stated) returned a TGI above 375 µM.

The values above are taken from PubChem BioAssay (NCI).
